# Test results from PubChem BioAssay AID1347073 (National Center for Advancing Translational Sciences (NCATS), 2019).
# In all, about 45,000 compounds went through this assay and about 200 (0.44%) were called active. Inconclusive results (about 7%) are left out. The call rests on the fitted dose curve; in most records, active means well fitted activation curve with a large enough effect; inconclusive means small, poorly fitted or top-dose-only effect; inactive means no such curve, though single readings can be large or run the other way. This is one part of the list.
# Assay: qHTS of TDP-43 Inhibitors: NCGC Sytravon Library Screen; further: 0% is about no effect; nearly all actives have a fitted effect of over 55% in size
# Conditions: yeast TDP-43 toxicity rescue, BacTiter-Glo growth, 24 h; series mostly up to 46.1 µM; growth rescue (activation): at the top concentration
# Method in brief: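 TDP-43-expressing yeast, pregrown in raffinose, seeded at OD600 0.02 in galactose medium with compound for 24 hr at 30 deg C. Growth read by BacTiter-Glo luminescence, so rescue of toxicity appears as activation.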
row,SMILES,growth rescue (activation)
1,O=C(NNC(=O)c1ccc(Cl)nc1)c1ccc(Br)cc1,inactive: 4.62%
2,O=C(CN1CCCCCC1)N/N=C/c1cccc(Cl)c1Cl,inactive: 0.852%
3,COCCCNC(=O)CSc1nc2sc(C(=O)OC)c(C)c2c(=O)n1N,inactive: -5.41%
4,O=S(=O)(c1cccc2nsnc12)N1CCN(c2ccc(F)cc2)CC1,inactive: 28.7%
5,CCc1nc2ccc(C(=O)NCCc3c[nH]c4ccccc34)cn2c1N(C)CCCc1ccccc1,inactive: 3.08%
6,CCN(CC(=O)Nc1cc(Cl)cc(Cl)c1)CC(=O)NC1CCS(=O)(=O)C1 (stereo not given),inactive: -14.7%
7,COc1cc(C2Nc3ccccc3NC3=C2C(=O)CC(C)(C)C3)cc(OC)c1OC (stereo not given),inactive: 10.8%
8,Cc1ccc(CN2CCN(/N=C/c3ccc(Cl)c([N+](=O)[O-])c3)CC2)cc1,inactive: 1.51%
9,CCCCNC(=O)c1ccc2nc(CC)c(N(CC)CCOC)n2c1,inactive: -7.65%
10,CN(CC(=O)NCC1CCCO1)S(=O)(=O)c1ccc(Br)cc1 (stereo not given),inactive: 1.46%
11,Cc1cc(NC(=O)CSCC(=O)N2CCN(c3ccccc3)CC2)no1,inactive: 6.69%
12,CCN(CC)S(=O)(=O)c1ccc(C(=O)NC(C)(C)C)cc1,inactive: -11%
13,CCOc1ccc(OCC(=O)Nc2ccc(S(N)(=O)=O)cc2)cc1,inactive: 9.46%
14,CCOc1ccccc1OCC(=O)NN=C1CCCC(=O)C1,inactive: -7.47%
15,CC(C)N(CC#CC(O)(c1ccccc1)c1ccccc1)CCO,inactive: 18.8%
16,Cc1ccc(C(=O)Nc2cc3ccccc3oc2=O)cc1,inactive: 0.265%
17,Cc1cccc(/C(N)=N/OC(=O)c2ccc(F)cc2)c1,inactive: -61.1%
18,CN1CCC(C)(C(=O)Nc2cccc3c2CCCC3)C1 (stereo not given),inactive: -13.2%
19,CCCOc1ccc(/C(O)=C2\C(=O)C(=O)N(c3ccccn3)C2c2ccccc2F)cc1C (stereo not given),inactive: -6.02%
20,COc1ccc2oc(=O)c(/C(N)=N/NC(=O)c3ccncc3)cc2c1,inactive: 7.88%
21,O=C(Nc1ccccc1C(=O)NCc1cccnc1)c1ccc(Cl)cc1Cl,inactive: -3.63%
22,CCCSc1ncc(Cl)c(C(=O)Nc2sc(C(C)=O)c(C)c2C(=O)OCC)n1,inactive: 24.3%
23,C=CCc1cccc(CNc2ccc(S(=O)(=O)Nc3nccnc3OC)cc2)c1O,inactive: -4.71%
24,O=C(OCCN=C1NS(=O)(=O)c2ccccc21)c1cccnc1,inactive: 26%
25,CN(C)S(=O)(=O)N(CC(=O)NCCSCc1ccc(Cl)cc1)c1ccccc1,inactive: 6.17%
26,CN(c1ccccc1C(=O)Nc1ccc(S(=O)(=O)N2CCOCC2)cc1)S(=O)(=O)c1ccccc1,inactive: 1.17%
27,Nc1nc2ccc(S(=O)(=O)c3ccc4nc(N)sc4c3)cc2s1,inactive: 4.07%

row,SMILES,growth rescue (activation)
1,COc1ccc(/C=C(/CC(=O)Nc2ccccc2)c2nc3ccccc3s2)cc1,inactive: -19.5%
2,CCN(CC)C(=O)c1sc(NC(=O)c2cccnc2)c(C(=O)OC)c1C,inactive: 6.81%
3,CCCCN(CC)CCNC(=O)c1cc2cc3ccc(Cl)cc3nc2o1,inactive: -6.51%
4,Cc1nnc(Sc2cc(C(=O)NC3CC3)c3ccccc3n2)s1,inactive: -1.84%
5,CNc1c(NS(=O)(=O)c2ccc(F)c(Cl)c2)c(=O)oc2ccccc12,inactive: -4.79%
6,COc1ccc([N+](=O)[O-])cc1N(CC(=O)Nc1ccccc1C(=O)NC(C)C)S(C)(=O)=O,inactive: 8.95%
7,CC(=O)NCCc1ccc(S(=O)(=O)Nc2ccc(NC(=O)c3ccc(F)cc3)cc2)cc1,inactive: 7.15%
8,Cc1ccc(NC(=O)CN2C(=O)C(c3ccc(C)cc3)=NC23CCCCCC3)cc1,inactive: -3.22%
9,O=S(=O)(Nc1cccc(S(=O)(=O)N2CCCCCC2)c1)c1ccccc1,inactive: 2.39%
10,CC(C(=O)NC1CCCc2ccccc21)N1CCN(c2ccc(F)cc2)CC1 (stereo not given),inactive: -19.9%
11,Cc1ccc(/C=C/C(=O)NC(=S)N2CCN(c3ccc(F)cc3)CC2)cc1,inactive: -10.3%
12,CN(C)C(=O)CSc1nnc(NC(=O)CCc2ccccc2)s1,inactive: 11.8%
13,CCOC(=O)c1sc(NC(=S)NC(=O)c2ccccc2Cl)c(C(=O)OCC)c1C,inactive: 27.8%
14,C(=N\N=C\c1ccccn1)/c1ccccn1,inactive: -4.7%
15,Cc1ccc(/C=N/NC(=O)CSc2nnc(-c3ccc(Cl)cc3)n2-c2ccc(Cl)cc2)o1,inactive: -2.27%
16,Cc1cccc(/C(N)=N/OC(=O)COc2ccccc2Cl)c1,inactive: 21.1%
17,CCOC(=O)c1ccc(N=c2scc(C)n2CC)cc1,inactive: 20.1%
18,CC(C)n1cc([C@@H]2C[C@H]3CN(Cc4cccc(Cl)c4)C(=O)[C@]34CCCN24)cn1,inactive: -12.7%
19,COc1cc(/C=C/C(=O)NCc2ccccn2)cc(OC)c1OC,inactive: 27.1%
20,CCOc1ccc(CN(C)CCc2ccccn2)cc1,inactive: -5.63%
21,O=C(COC(=O)CCC1CCCC1)Nc1nc2c(F)c(F)c(F)cc2s1,inactive: 13.9%
22,Cc1ccc(NC(=O)CC(=O)Nc2ccc(C)c(C)c2)cc1C,inactive: 5.64%
23,COc1cccc(CC2(CO)CCCN(Cc3cn[nH]c3-c3ccccc3)C2)c1 (stereo not given),inactive: -0.758%
24,CCNC(=S)N/N=C(\C)c1ccc2c(c1)OCCO2,inactive: 23%
25,Cc1nc(CCNC(=O)CC2C(=O)NCCN2Cc2ccc(F)cc2)sc1C (stereo not given),inactive: -1.21%
26,O=[N+]([O-])c1ccc(OCc2nnc(-c3ccccc3)o2)cc1,inactive: -2.46%
27,COc1ccc(OCc2nnc(SCC(=O)Nc3ccccc3C#N)o2)cc1,inactive: -2.09%

row,SMILES,growth rescue (activation)
1,CC(c1ccccc1)n1c(S(=O)(=O)O)nc2ccccc21 (stereo not given),inactive: -1.34%
2,Cc1[nH]n(-c2ccccc2)c(=O)c1C(c1cc(Cl)ccc1O)c1c(C)[nH]n(-c2ccccc2)c1=O,inactive: 0.238%
3,CSc1ccccc1C(=O)Nc1cc([N+](=O)[O-])ccc1C,inactive: 27.9%
4,COc1ccc(NC(=S)N2CCC(NC(=O)c3ccc(F)cc3)CC2)cc1,inactive: -5.51%
5,Cc1c(CNC2CCCC2)c(C(=O)O)c(C)n1Cc1ccccc1,inactive: 15.8%
6,C=CCN(C(=O)c1csnn1)C(C(=O)NCc1ccc(F)cc1)c1cccs1 (stereo not given),inactive: 12%
7,COc1ccc(-c2oc(=O)n(C)c2-c2ccc(OC)cc2)cc1,inactive: 26.4%
8,CCN(CC)c1ccc(NC(=O)OC)cc1,inactive: 13.2%
9,COc1ccc(C2=NOC(CNC(=S)N3CCOCC3)C2)cc1 (stereo not given),inactive: 9.74%
10,CCN(CC)C(=O)CSc1ccc(C(F)(F)F)cc1[N+](=O)[O-],inactive: 17.9%
11,Cc1ccccc1NC(=O)CSc1nc2ccccc2c(=O)n1CC1CCCO1 (stereo not given),inactive: -3.76%
12,C/C(CC(=O)Nc1ccc2c(c1)OCCO2)=N\NC(=O)COc1ccccc1C,inactive: 2.45%
13,O=[N+]([O-])c1ccc(O)c(C=Nc2ccc3nc(-c4ccccc4)[nH]c3c2)c1,inactive: -10.9%
14,COc1cccc(-n2c(-c3ccccc3)c[nH]c2=S)c1,inactive: 9.64%
15,CN(NS(=O)(=O)c1ccc(Br)cc1)c1nc(C(F)(F)F)nc2ccccc12,inactive: 8.07%
16,O=C(NCc1n[nH]c(=S)n1-c1cccc(Cl)c1)c1ccc(S(=O)(=O)N2CCCCC2)cc1,inactive: 4.74%
17,Cc1cccn2c(=O)c3cc(C(=O)NCCN4CCOCC4)c(=N)n(CCN4CCOCC4)c3nc12,inactive: 6.75%
18,Cn1c(N)c(C(=O)CSc2nnc3n2CCCCC3)c(=O)n(C)c1=O,inactive: 18.9%
19,COc1ccc(NC(=O)CS(=O)CC(=O)N2CCN(C3CCCC3)CC2)cc1 (stereo not given),inactive: -14.8%
20,O=[N+]([O-])c1ccc(N2CCN(CCO)CC2)cc1NCc1ccco1,inactive: 14.3%
21,COc1cc(Cn2c3ccc(NC(=O)CC(C)c4ccccc4)cc3c(=O)n2C)ccc1F (stereo not given),inactive: -6.95%
22,CCn1c(O)c(/C=N/N=C2CCCCC2)c2cc(C3=NNC(=O)CC3)ccc21,inactive: 4.62%
23,Cc1occc1C(=O)N=Nc1c(O)n(C)c2ccccc12,inactive: 8.47%
24,COc1cccc(-c2nc(NCc3cccnc3)c3ccccc3n2)c1O,inactive: 10.5%
25,O=C(Nc1ccc(N2CCOCC2)cc1)c1ccc(COc2ccccc2)cc1,inactive: 5.54%
26,O=C(NNC(=O)c1cc(S(=O)(=O)N2CCOCC2)c(Cl)cc1Cl)c1ccccc1F,inactive: -1.39%
27,CCOc1ccccc1N1CCN(C(=O)c2ccc3nc(N)sc3c2)CC1,inactive: -0.049%

row,SMILES,growth rescue (activation)
1,CN=C1S/C(=C\c2ccc(SC)cc2)C(=O)N1C,inactive: -0.807%
2,COc1ccccc1CNc1nc(NCc2ccc(C)cc2C)c2sccc2n1,inactive: -7.04%
3,COc1cc(OC)cc(OC2(C)CCN(Cc3ccc(OC(C)C)cc3)C2)c1 (stereo not given),inactive: -6.88%
4,Cc1ccc(NC(=O)N2CCc3cc(S(=O)(=O)N4CCC(C)CC4)ccc32)cc1,inactive: -3.78%
5,CCOc1ccccc1NC(=O)C1CCCN(S(C)(=O)=O)C1 (stereo not given),inactive: -0.117%
6,CC1CCN(C(=O)Cn2c(=O)n(CCCCCC(=O)NCc3ccccc3Cl)c(=O)c3sccc32)CC1,inactive: -2.92%
7,COCCn1c(SCC(=O)Nc2ccc3[nH]c(=O)[nH]c3c2)nc2ccccc21,inactive: -0.437%
8,Cc1cc([N+](=O)[O-])ccc1NC(=O)CSc1nncn1-c1ccccn1,inactive: 1.67%
9,CCCC(=O)Nc1ccc(-c2csc(N/N=C\c3ccncc3)n2)cc1,inactive: 18.5%
10,CN1CCN(c2ccc(CNC(=O)C3Cc4c(-c5ccc6c(c5)OCO6)ccnc4O3)cc2)CC1 (stereo not given),inactive: 0.758%
11,O=C(Nc1cccc(NC(=O)c2ccc([N+](=O)[O-])o2)c1)c1ccco1,inactive: 12.9%
12,Cc1cc(Cl)ccc1NC(=O)Cn1nc(C)c2c(C)n(-c3ccccc3)nc2c1=O,inactive: 7.79%
13,Cc1nc2sc3c(c2c(=N)n1N)CCCC3,inactive: 4.09%
14,CC(C)[C@H](NC(=O)NC1CCN(Cc2ccccc2)CC1)C(=O)O,inactive: 0.36%
15,CN(C)CCNc1ncnc2c1ncn2[C@H]1CN(Cc2ccncc2)C[C@@H](CO)O1,inactive: -0.256%
16,Cc1cc(=O)oc2c(CN3CCCCC3)c(O)c(Cl)cc12,inactive: -2.82%
17,O=C(c1ccc(S(=O)(=O)N2CCOCC2)cc1)N1CCOCC1,inactive: -17.3%
18,CNC(=O)c1cc(S(=O)(=O)Nc2ccc(C)cc2C)ccc1C,inactive: -3.42%
19,Cc1cc(C)c(C(=O)COC(=O)Cn2nc(-c3ccccc3)oc2=O)cc1C,inactive: 26.8%
20,Cn1c(=O)c2c(nc(CN3CCN(C(=O)c4ccco4)CC3)n2CC(=O)C(C)(C)C)n(C)c1=O,inactive: 3.46%
21,N#C/C(=C(/O)c1ccc(C(=O)c2ccccc2)cc1)c1nc2ccccc2[nH]1,inactive: -3.57%
22,O=C(OCn1nnc2ccccc2c1=O)c1ccc2ccccc2n1,inactive: 3.95%
23,Cc1cc(Cl)ccc1NC(=S)NCC(C)C,inactive: 6.22%
24,CC(C)CNC(=O)C1(C)CCCN1C(=O)C(C)(C)Oc1ccc(Cl)cc1 (stereo not given),inactive: 29.4%
